The list shows a part of the results. Most values come without repeats; read them as rough.
How the values were obtained:
Assay in all cases: cell count relative to DMSO control; melanoma cells; higher = more viable cells
Conditions in all cases: library dose: standard library concentration; 72 h
G361 = test system: G361
IPC-298 = test system: IPC-298
IST-MEL1 = test system: IST-MEL1
LB2518-MEL = test system: LB2518-MEL
LOXIMVI = test system: LOXIMVI
MEL-HO = test system: MEL-HO
MZ2-MEL = test system: MZ2-MEL
MeWo = test system: MeWo
RPMI7951 = test system: RPMI7951
RVH-421 = test system: RVH-421
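Note: cells treated in 1,536-well plates, then fixed and DAPI-stained, with nuclei counted from automated high-throughput microscope images.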

Structure (SMILES) | cell count (G361) [%] | cell count (IPC-298) [%] | cell count (IST-MEL1) [%] | cell count (LB2518-MEL) [%] | cell count (LOXIMVI) [%] | cell count (MEL-HO) [%] | cell count (MZ2-MEL) [%] | cell count (MeWo) [%] | cell count (RPMI7951) [%] | cell count (RVH-421) [%]
O=C(O)c1ccc(-c2c[nH]c3ncc(-c4ccccc4)cc23)cc1C1CCCC1 + Oc1nc(-c2ccc(C(F)(F)F)cc2)nc2c1CSCC2 [XAV939] (first compound 0.8 µM, partner dose 10 µM) | 70.9 | 78.8 | 93.2 | 97.8 | 93.1 | 80.5 | 79.5 | 83.2 | 62.3 | 77.6
COc1cc(Nc2ncc(F)c(Nc3ccc4c(n3)NC(=O)C(C)(C)O4)n2)cc(OC)c1OC [Tamatinib] + Cc1ccc(NC(=O)c2cccc(N(C)C)c2)cc1NC(=O)c1ccc(O)cc1 [ZM336372] (first compound 2 µM, partner dose 10 µM) | 59.8 | 78 | 59.7 | 88.9 | 33.1 | 67.2 | 63.2 | 66.2 | 31.7 | 110
O=c1[nH]nc(Sc2ncc([N+](=O)[O-])s2)n1-c1ccc2c(c1)OCCO2 + CC(=O)O[C@@]12CO[C@@H]1C[C@H](O)[C@@]1(C)C(=O)[C@H](O)C3=C(C)[C@@H](OC(=O)[C@H](O)[C@@H](NC(=O)OC(C)(C)C)c4ccccc4)C[C@@](O)([C@@H](OC(=O)c4ccccc4)[C@H]21)C3(C)C [Docetaxel] (first compound 1 µM, partner dose 0.0005 µM) | 14.5 | 36.7 | 33.9 | 43.2 | 74.9 | 37.1 | 33.2 | 22.8 | 27.5 | 46
O=c1[nH]nc(Sc2ncc([N+](=O)[O-])s2)n1-c1ccc2c(c1)OCCO2 + COc1ccc(Cl)c(Nc2nc3ccccc3nc2NS(=O)(=O)c2cccc(NC(=O)C(C)(C)N)c2)c1 [XL147] (first compound 1 µM, partner dose 4 µM) | 87.4 | 75.3 | 64.4 | 77.2 | 104 | 82.9 | 80.6 | 91.5 | 83.9 | 106
O=C(Nc1cccc(Cl)c1)Nc1ncc(CCNc2ncnc3ccsc23)s1 + COc1cc2c(Oc3ccc4[nH]c(C)cc4c3F)ncnc2cc1OCCCN1CCCC1 [cediranib] (first compound 0.004 µM, partner dose 2 µM) | 101 | 104 | 69.6 | 67.3 | 99 | 90.6 | 93.6 | 79.7 | 60.3 | 81
C[C@@H]1CCN(C(=O)CC#N)C[C@@H]1N(C)c1ncnc2[nH]ccc12 + O=c1cc(-c2cccc3c2Sc2ccccc2S3)oc(N2CCOCC2)c1 [KU55933] (first compound 5 µM, partner dose 5 µM) | 72.9 | 94.2 | 107 | 90.3 | 78.7 | 83.9 | 93.9 | 84.7 | 71.4 | 88.7
COc1cc(Nc2ncc(F)c(Nc3ccc4c(n3)NC(=O)C(C)(C)O4)n2)cc(OC)c1OC [Tamatinib] + OCCn1cc(-c2cnc3nnn(Cc4ccc5ncccc5c4)c3n2)cn1 [PF04217903] (first compound 2 µM, partner dose 5 µM) | 76.7 | 81.1 | 65.7 | 83.2 | 25.3 | 77.1 | 85.4 | 59.1 | 26.1 | 82.9
O=C(O)c1ccc(-c2c[nH]c3ncc(-c4ccccc4)cc23)cc1C1CCCC1 + COc1cc2c(Oc3ccc4[nH]c(C)cc4c3F)ncnc2cc1OCCCN1CCCC1 [cediranib] (first compound 0.8 µM, partner dose 2 µM) | 57.8 | 110 | 79.2 | 97.3 | 74.7 | 76.8 | 83.3 | 94.3 | 63.5 | 76.6
O=c1[nH]nc(Sc2ncc([N+](=O)[O-])s2)n1-c1ccc2c(c1)OCCO2 + Cn1cc(/C=C2\C(=O)Nc3cccnc32)c2ccccc21 [GW441756] (first compound 1 µM, partner dose 2 µM) | 90.5 | 82.3 | 98.3 | 74.4 | 103 | 91.8 | 94.4 | 103 | 82.1 | 106
O=C(Nc1cccc(Cl)c1)Nc1ncc(CCNc2ncnc3ccsc23)s1 + CC(C)CCN1c2nc(Nc3cc(F)c(O)c(F)c3)ncc2N(C)C(=O)C1C [BID1870] (first compound 0.004 µM, partner dose 1 µM) | 36.1 | 56.5 | 35.6 | 83 | 76.8 | 69 | 59 | 39.4 | 41.7 | 54
O=c1[nH]nc(Sc2ncc([N+](=O)[O-])s2)n1-c1ccc2c(c1)OCCO2 + Clc1ccc(Nc2nnc(Cc3ccncc3)c3ccccc23)cc1 [vatalanib] (first compound 1 µM, partner dose 10 µM) | 73.5 | 62 | 78.3 | 77.6 | 63.1 | 67.8 | 72.4 | 66.1 | 66.1 | 55.9
Cn1cncc1[C@@](N)(c1ccc(Cl)cc1)c1ccc2c(c1)c(-c1cccc(Cl)c1)cc(=O)n2C [tipifarnib] + O=S(=O)(c1ccccc1)N(CC(F)(F)F)c1ccc(C(O)(C(F)(F)F)C(F)(F)F)cc1 [T0901317] (first compound 0.05 µM, partner dose 7 µM) | 75.1 | 72.7 | 107 | 69 | 103 | 85.9 | 92.1 | 78.8 | 79.7 | 23.1
O=C(O)c1ccc(-c2c[nH]c3ncc(-c4ccccc4)cc23)cc1C1CCCC1 + O=c1cc(-c2cccc3c2Sc2ccccc2S3)oc(N2CCOCC2)c1 [KU55933] (first compound 0.8 µM, partner dose 5 µM) | 60.1 | 78.9 | 79.9 | 41.7 | 96.2 | 83.1 | 78.3 | 88.1 | 68.2 | 104
O=c1[nH]nc(Sc2ncc([N+](=O)[O-])s2)n1-c1ccc2c(c1)OCCO2 + O=C1NC(=O)/C(=C/c2ccc(-c3ccc(F)cc3O)o2)S1 [AS252424] (first compound 1 µM, partner dose 5 µM) | 100 | 102 | 106 | 120 | 111 | 96.3 | 107 | 87.6 | 113 | 108
CC1(C)NC(=O)N(c2ccc([N+](=O)[O-])c(C(F)(F)F)c2)C1=O [nilutamide] + COc1cc2ncnc(Nc3ccc(Oc4ccccc4)cc3)c2cc1OC [SrcI1] (first compound 5 µM, partner dose 10 µM) | 66.8 | 99.4 | 91.9 | 125 | 73 | 93.3 | 79.6 | 81.8 | 49.5 | 122
O=c1[nH]nc(Sc2ncc([N+](=O)[O-])s2)n1-c1ccc2c(c1)OCCO2 + CCCCCCCCCCCC1=C(O)C(=O)C=C(O)C1=O [Embelin] (first compound 1 µM, partner dose 6 µM) | 60.6 | 67.8 | 56.3 | 86.2 | 75.8 | 62.4 | 92 | 92.2 | 77.4 | 47.2
COc1cc(Nc2ncc(F)c(Nc3ccc4c(n3)NC(=O)C(C)(C)O4)n2)cc(OC)c1OC [Tamatinib] + CO[C@@H]1[C@H](N(C)C(=O)c2ccccc2)C[C@H]2O[C@]1(C)n1c3ccccc3c3c4c(c5c6ccccc6n2c5c31)C(=O)NC4 [Midostaurin] (first compound 2 µM, partner dose 0.4 µM) | 47.8 | 43 | 25.7 | 38.4 | 15 | 45.1 | 37.3 | 47.7 | 8.39 | 53.6
COc1cc(Nc2ncc(F)c(Nc3ccc4c(n3)NC(=O)C(C)(C)O4)n2)cc(OC)c1OC [Tamatinib] + CC(C)CCN1c2nc(Nc3cc(F)c(O)c(F)c3)ncc2N(C)C(=O)C1C [BID1870] (first compound 2 µM, partner dose 1 µM) | 44 | 81.5 | 48.9 | 83.4 | 63.2 | 48.3 | 82.8 | 45 | 22.4 | 71.4
CC1(C)NC(=O)N(c2ccc([N+](=O)[O-])c(C(F)(F)F)c2)C1=O [nilutamide] + CCCCCCCCCCCC1=C(O)C(=O)C=C(O)C1=O [Embelin] (first compound 5 µM, partner dose 6 µM) | 84.3 | 68.7 | 74.5 | 93.6 | 108 | 83.2 | 110 | 87.1 | 87.2 | 71.9
O=c1[nH]nc(Sc2ncc([N+](=O)[O-])s2)n1-c1ccc2c(c1)OCCO2 + CNC(=O)c1cc(Oc2ccc(NC(=O)Nc3ccc(Cl)c(C(F)(F)F)c3)cc2)ccn1 [sorafenib] (first compound 1 µM, partner dose 2 µM) | 91 | 72.8 | 121 | 75.9 | 158 | 97.2 | 104 | 83.3 | 84.6 | 106
O=C(Nc1cccc(Cl)c1)Nc1ncc(CCNc2ncnc3ccsc23)s1 + COc1ccc2c(c1)CCC1C2CCC2(C)C(NCCCCCCN3C(=O)C=CC3=O)CCC12 [U73122] (first compound 0.004 µM, partner dose 2 µM) | 78.7 | 116 | 91 | 85.9 | 71.5 | 102 | 84 | 47.6 | 38 | 73.6

— the supplement of paper PMC4604168 (melanoma cell lines)
